# According to PMC4336329 (PLoS ONE, 2015):
# About 14,000 (4.5%) of roughly 310,000 compounds showed an effect of 50% or more. Effects have a minus sign here. The list shows a part of the results.
# Target: human ether-à-go-go-related gene (hERG) potassium channel (human, UniProt Q12809)
# Test: primary screen, population patch clamp on CHO cells stably expressing hERG
# 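Also: peak tail current of the secondary pulse compared with the same well before compound.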
# Sequence of human ether-à-go-go-related gene (hERG) potassium channel (Q12809 whole entry, looked up): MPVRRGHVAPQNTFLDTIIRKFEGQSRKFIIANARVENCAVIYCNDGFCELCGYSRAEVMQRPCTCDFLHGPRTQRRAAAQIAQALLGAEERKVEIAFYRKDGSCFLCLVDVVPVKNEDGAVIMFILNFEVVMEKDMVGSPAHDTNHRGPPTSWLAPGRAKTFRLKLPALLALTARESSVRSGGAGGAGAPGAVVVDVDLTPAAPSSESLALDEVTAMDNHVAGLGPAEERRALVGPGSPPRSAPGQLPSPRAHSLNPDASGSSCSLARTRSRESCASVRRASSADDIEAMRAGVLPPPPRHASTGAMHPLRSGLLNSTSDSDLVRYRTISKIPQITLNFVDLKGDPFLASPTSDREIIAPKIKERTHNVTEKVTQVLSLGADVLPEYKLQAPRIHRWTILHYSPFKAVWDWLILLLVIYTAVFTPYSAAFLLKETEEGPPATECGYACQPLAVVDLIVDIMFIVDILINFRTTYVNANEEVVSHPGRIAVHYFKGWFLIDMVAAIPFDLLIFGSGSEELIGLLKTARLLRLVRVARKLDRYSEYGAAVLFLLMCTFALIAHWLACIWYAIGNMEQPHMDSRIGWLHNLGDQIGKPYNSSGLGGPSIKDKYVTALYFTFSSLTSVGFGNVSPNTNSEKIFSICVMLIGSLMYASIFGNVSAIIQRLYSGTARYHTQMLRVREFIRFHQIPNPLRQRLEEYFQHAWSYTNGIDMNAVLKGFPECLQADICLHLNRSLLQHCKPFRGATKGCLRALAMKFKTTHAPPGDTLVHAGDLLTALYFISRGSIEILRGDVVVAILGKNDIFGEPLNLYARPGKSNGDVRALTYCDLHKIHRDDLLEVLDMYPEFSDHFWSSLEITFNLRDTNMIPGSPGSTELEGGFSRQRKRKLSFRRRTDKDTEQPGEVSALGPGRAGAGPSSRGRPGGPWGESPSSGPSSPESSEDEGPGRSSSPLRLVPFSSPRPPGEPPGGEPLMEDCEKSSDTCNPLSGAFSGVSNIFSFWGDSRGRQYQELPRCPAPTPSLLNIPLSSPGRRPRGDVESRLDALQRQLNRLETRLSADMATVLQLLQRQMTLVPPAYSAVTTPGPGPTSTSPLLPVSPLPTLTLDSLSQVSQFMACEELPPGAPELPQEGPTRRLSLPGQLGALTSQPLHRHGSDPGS
row,SMILES,"hERG current change (%, negative = inhibition) at 10uM"
1,O=C(COc1ccc2ccc(=O)oc2c1)NC1CCN(Cc2ccccc2)CC1,-55.2%
2,COc1cc(NC(=O)CN2CCN(c3ccccc3F)CC2)cc(OC)c1,-10.2%
3,O=C(COc1ccc(Cl)cc1[N+](=O)[O-])N1CCCCC1,-13.7%
4,COc1ccc(-c2ccnc3c(Br)c(C)nn23)cc1,2.25%
5,CC(C)NC(=O)COc1ccc2c(c1)C(=O)CC(C)(C)O2,18.5%
6,COc1cc(O)c(C(CCN2CCOCC2)c2ccc3c(c2)OCO3)c(OC)c1 (centres unmarked),-59.5%
7,CC1=Nc2ccc(Br)cc2C(c2ccccc2)N1CC(=O)O (centres unmarked),33.7%
8,COC(=O)c1cc2ccccc2n1Cc1ccc(Cl)nc1,12.3%
9,CCOc1ccccc1N1C(=O)CC(Sc2ncccc2C(=O)O)C1=O (centres unmarked),21.6%
10,O=[N+]([O-])c1cccc(C(=Nc2cccc(Cl)c2)NO)c1,-20%
11,Cc1ccc(NC(=S)c2ccc3ccccc3n2)c(C)c1,25.4%
12,O=C(/C=C/c1ccc(Cl)cc1Cl)Nc1cccc(S(=O)(=O)NC2=NCCCCC2)c1,-4.26%
13,O=C1CC(NNc2nc3ccccc3s2)C(=O)N1c1ccccc1 (centres unmarked),-1.89%
14,CN(C)c1ccc(/C=C2\C(=N)N3C(=NC2=O)Sc2cc(S(C)(=O)=O)ccc23)cc1,14.7%
15,O=C(O)CN1C(=O)CC(Cc2ccccc2)C1=O (centres unmarked),8.43%
16,COC(=O)C1=C(c2ccc(F)cc2F)C[C@@H]2CC[C@H]1N2C(=O)NCc1ccc(C(F)(F)F)cc1,-0.48%
17,COC(=O)c1nc2cc(C)ccn2c1F,7.63%
18,CC(C)C(NC(=O)c1ccccc1)C(=O)OCc1cc([N+](=O)[O-])cc2c1OCOC2 (centres unmarked),-16.5%
19,Cl.NCC12CC3CC(C1)CC(c1ccc(Br)cc1)(C3)C2,-3.74%
20,COc1ccc(-c2noc(CN(C)C3CCOCC3)n2)cc1,-8.59%
21,CC(C)(C)NC(=O)C12CCC(C)(c3nc4ccccc4nc31)C2(C)C (centres unmarked),-1.94%
22,Cc1cc(N2CCN(c3nc(-c4ccccc4)cs3)CC2)c2ccccc2n1,-23.3%

row,SMILES,"hERG current change (%, negative = inhibition) at 10uM"
1,Cc1ccc(C23CC4CC(CC(NC(=O)NCCN(C)C)(C4)C2)C3)cc1,-15.5%
2,CCOC(=O)c1c(S(=O)(=O)N2CCc3ccccc32)c(C)n(C)c1C,-10.5%
3,CCn1c(SCC(=O)Nc2ccc(S(N)(=O)=O)cc2)nnc1-c1ccccc1OC,2.47%
4,Cc1cccc(NC(=O)C2CCCN(C(=O)Nc3ccccc3)C2)c1C (centres unmarked),-2.12%
5,Cc1ncc([N+](=O)[O-])n1CC(=O)NC1CCCCC1,0.713%
6,Cc1onc(-c2ccccc2)c1CNC(=O)Nc1ccccc1,13.3%
7,Cc1ccccc1OCCC(=O)OCC(=O)NC1CCS(=O)(=O)C1 (centres unmarked),16.6%
8,O=C(NCCc1ccccc1)C1c2ccccc2C(=O)N1Cc1cccs1 (centres unmarked),13.3%
9,Cc1ccc2[nH]c3c(=O)n(CC(=O)Nc4ccccc4N4CCN(C)CC4)ncc3c2c1,-5.73%
10,Cn1nnc2c(C(N)=O)ncn2c1=O,-13.3%
11,Cc1ccc(C)c(NC(=O)C(Sc2ncnc3ccccc23)c2ccccc2)c1 (centres unmarked),-14.8%
12,COc1ccc(Cl)cc1N(C)C(=O)CCNC(=O)Cn1cnc2ccccc2c1=O,6.62%
13,O=C(NCc1ccccn1)C1CC(=O)N(C2CCCC2)C1 (centres unmarked),9.62%
14,COc1ccc(Oc2cc(C(F)(F)F)cnc2C(N)=O)cc1,13.6%
15,CC1(C)CC(=O)C(C=NCCN2CCN(C3CC(=O)N(c4ccc(Br)cc4)C3=O)CC2)=C(O)C1 (centres unmarked),-19.3%
16,O=C(N1CCCCC1)C1(c2ccccc2)CCCCC1,4.43%
17,CCC(C)(C)n1nnnc1CN1CCN(c2ccc(OC)cc2)CC1,-17%
18,Cc1cccc(CSc2nnc(-c3cccs3)n2Cc2ccco2)c1,-38.1%
19,CCOC(=O)c1[nH]c2ccc(OCC)cc2c1NC(=O)CN1CCN(c2ccccn2)CC1,-12.7%
20,CN(C)S(=O)(=O)c1ccc(NC(=O)CNc2cc(S(=O)(=O)N3CCCC3)ccc2OCC(F)(F)F)cc1,-11.4%
21,CC(=O)NCCc1ccc(S(=O)(=O)N2CCN(c3nc(-c4ccccc4)c(C)s3)CC2)cc1,16.6%
22,S=C(NCc1ccco1)N1CCOCC1,12.6%
